# Source: PubChem BioAssay AID686979 (National Center for Advancing Translational Sciences (NCATS), 2013)
# The whole screen tested about 420,000 compounds, of which about 50,000 (12%) were called active. The inconclusive results got no clear call from the source; some entries with a clear call stand among them for comparison. Calls follow the shape of the dose curve; as a rule, active = well fitted inhibition curve with a large enough effect; inconclusive = small, poorly fitted or top-dose-only effect; inactive = flat fitted curve, though single readings scatter. Potencies of inconclusive entries are left out as doubtful fits.
# Experiment: qHTS for Inhibitors of human tyrosyl-DNA phosphodiesterase 1 (TDP1): qHTS in cells in presence of CPT; also: nearly all actives have a fitted effect of over 55% in size
# Settings: chicken DT40 Tdp1-/-;hTDP1 cells + 20 nM CPT, ATP luminescence, 48 h; series mostly up to 46.2 µM
# In short: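 Chicken DT40 Tdp1-/- cells stably complemented with human TDP1 were seeded at 400 cells/well in medium containing 20 nM camptothecin, exposed to pin-transferred compounds, and grown at 37 °C for at least 48 hr. Viability was read as ATP luminescence.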
# Potency is read from the fitted curve at half-maximal effect; tags tell the direction and shape of the fitted curve.
row,SMILES,Potency
1,Cc1ccc(NC(=O)Cc2ccc(-n3c(C)nc4cccnc43)cc2)c(Cl)c1,active: 5.17 µM
2,CC(=O)c1ccc(-c2cnc3c(NC=O)cc(-c4ccccc4Oc4ccccc4)cn23)cc1,"inconclusive [inhibitor, single point]"
3,O=C(Cn1cnc([N+](=O)[O-])n1)NCCO,inactive
4,CC(C)CCNC(=O)c1ccccc1SCC(=O)NC1CCCCCCC1,active: 23.1 µM
5,Cc1ccc(NCSc2ccc(Cl)cc2)cc1,"inconclusive [inhibitor, partial curve]"
6,Cc1ccc(S(=O)(=O)N(C)C[C@@H]2OCc3cn(nn3)CCCC(=O)N([C@@H](C)CO)C[C@H]2C)cc1,inactive
7,COc1ccc(S(=O)(=O)N2CCC(C(=O)Nc3cccc(Cl)c3)CC2)cc1OC,inactive
8,CC(C)(C)c1ccc(/C=C/C(=O)c2ccc(NC3=NCCCS3)cc2)cc1,active: 23.1 µM
9,CCOC(=O)C1=CCN(S(=O)(=O)c2ccccc2Br)C1c1ccc(F)cc1 (stereo not drawn),"inconclusive [inhibitor, single point]"
10,COc1ccc2oc(-c3ccccc3)c(OC)c(=O)c2c1,"inconclusive [inhibitor, single point]"
11,CN(C(=O)c1coc(=O)c2ccccc12)c1ccccc1Cl,"inconclusive [inhibitor, single point]"
12,O=C(NN1CCOCC1)c1cccc(F)c1,inactive
13,Cc1ccc(Cl)c(OCC(=O)Nc2ccccc2N2CCCCC2)c1,"inconclusive [inhibitor, single point]"
14,O=C(COc1coc(CN2CCN(c3cccc(Cl)c3)CC2)cc1=O)NC1CCCC1,"inconclusive [inhibitor, single point]"
15,COc1ccc(Cl)cc1NC(=O)C1CC(=O)N(c2ccc(F)cc2)C1 (stereo not drawn),inactive
16,COc1ccc(CC(=O)N/N=C/c2cccn2-c2ccc([N+](=O)[O-])cc2)cc1OC,active: 16.4 µM
17,CC1CCCN(S(=O)(=O)c2ccc3c(c2)OCCO3)C1 (stereo not drawn),inactive
18,CCN1CCc2c(sc(NC(=O)c3ccc(S(=O)(=O)N(C)c4ccccc4)cc3)c2C(=O)NC)C1,active: 16.4 µM
19,CC(=O)c1ccc(NS(=O)(=O)c2ccc3c(c2)N(C)CCO3)cc1,"inconclusive [inhibitor, single point]"
20,COc1ccc(OC)c(NC(=O)C2(C)CCN2C(=O)C(C)(C)c2ccccc2)c1 (stereo not drawn),"inconclusive [inhibitor, single point]"
21,COc1ccc(Br)c(C=O)c1OS(=O)(=O)c1ccc(C)cc1,"inconclusive [inhibitor, single point]"
22,Cc1ccc(CNC(=O)C(=O)Nc2c3c(nn2-c2ccccc2)CSC3)cc1,"inconclusive [inhibitor, single point]"
23,CCCCn1nc(C(=O)Nc2cc(C(F)(F)F)ccc2N2CCOCC2)ccc1=O,active: 23.1 µM
24,COC(=O)c1ccc(-c2ccc(F)cc2)nc1C,inactive

row,SMILES,Potency
1,CCOC(=O)C1CCN(C(=O)CCc2nnc3ccc(NCc4ccco4)nn23)CC1,"inconclusive [inhibitor, single point]"
2,COc1ccccc1C(=O)NCCn1cc(SCC(=O)Nc2ccccc2F)c2ccccc21,"inconclusive [inhibitor, single point]"
3,CC(C)CN(C(=O)CSc1nnc2ccccn12)C1CCS(=O)(=O)C1 (stereo not drawn),inactive
4,COc1ccc(CNc2ncc(-c3ccccc3)n2C)c2ccccc12,"inconclusive [inhibitor, single point]"
5,C/C(=N\NC(=O)c1[nH]c2c([N+](=O)[O-])cc(C)cc2c1-c1ccccc1)c1cccnc1,active: 25.9 µM
6,COc1cc(/C=N/N=C(N)N)ccc1OCc1ccccc1Cl,"inconclusive [inhibitor, single point]"
7,CCOC(=O)CSC1=C(C#N)C(c2ccc(Cl)cc2)C(C(=O)OC)C(=O)N1 (stereo not drawn),"inconclusive [inhibitor, single point]"
8,COc1ccc(S(=O)(=O)N2CCCCC2c2cc(C(=O)Nc3ccc4c(c3)OCO4)no2)cc1 (stereo not drawn),active: 18.4 µM
9,COc1ccccc1CN(C)C(=O)COC(=O)c1c(C)noc1C,inactive
10,CC1CCN(S(=O)(=O)c2ccc3c(c2)N(CC(=O)NC(C)c2ccccc2)C(=O)CS3)CC1 (stereo not drawn),"inconclusive [inhibitor, single point]"
11,Cc1ccccc1C(=O)Nc1cccc(-c2ccc3nncn3n2)c1,active: 23.1 µM
12,COc1ccc(-c2ccc(S(=O)(=O)N3CCCC3)cc2)cc1,"inconclusive [inhibitor, single point]"
13,Cc1ccc(Oc2nc(CN3CCOCC3)nc3sc4c(c23)CCC(C)C4)cc1 (stereo not drawn),"inconclusive [inhibitor, single point]"
14,O=C(NCc1ccccc1)c1ccc(CNS(=O)(=O)c2ccc(Br)cc2)cc1,inactive
15,COc1ccccc1CNS(=O)(=O)c1ccc2c(c1)CC(C)N2C(C)=O (stereo not drawn),"inconclusive [inhibitor, single point]"
16,O=C1OC2CC3CC1CC(O)(C3)C2 (stereo not drawn),inactive
17,CC(C)(C)n1nnnc1C(c1ccccc1)N1CCN(c2c(Cl)cncc2Cl)CC1 (stereo not drawn),"inconclusive [inhibitor, single point]"
18,CC(=O)Nc1ccc(C(=O)COC(=O)C2CC2)c(F)c1,inactive
19,Cc1ccc(CN2CCC(c3nc4ccc(Cl)cc4[nH]3)CC2)cc1,active: 16.4 µM
20,COC(=O)[C@@]12CCCCN1[C@H](c1ccc(-c3ccc(OC)cc3)cc1)[C@H]1C(=O)N(C)C(=O)[C@H]12,active: 11.6 µM
21,CC(C)Cn1cc(NC(=O)N2CCN(c3cccc(Cl)c3)CC2)c2ccccc2c1=O,active: 7.31 µM
22,COC(=O)c1sc(C(=O)OC)c(C(=O)OC)c1C(=O)OC,inactive
23,N=C(N)SCc1ccc(Cl)c2ccccc12,"inconclusive [inhibitor, single point]"
24,FC(F)(F)c1ccccc1Cc1c(-c2ccc(Cl)cc2)nc2ccc(Cl)cn12,"inconclusive [inhibitor, single point]"
